Assay results reported in PubChem BioAssay AID686978 (National Center for Advancing Translational Sciences (NCATS), 2013).
“And” between values parts separate entries of the source, which are not always exact repeats. Equal entries are not always repeated. Among all 420,000 compounds or so, about 64,000 (15%) were called active. Inconclusive means that the source gave no clear call. Such entries were picked first, then a sample of the others. Calls come from the whole dose curve; as a rule, active = well fitted inhibition curve with a large enough effect; inconclusive = small, poorly fitted or top-dose-only effect; inactive = flat fitted curve, though single readings scatter. No potency is given beside an inconclusive call; the fits are too rough.

Assay: qHTS for Inhibitors of human tyrosyl-DNA phosphodiesterase 1 (TDP1): qHTS in cells in absence of CPT; note: nearly all actives have a fitted effect of over 55% in size
Details: DT40 Tdp1-/- hTDP1 cells, no CPT, ATP luminescence, 48 h; activity change, negative = growth inhibition: at 46.2 µM (top of the series) unless noted
Summary of the method: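 No-CPT arm: Tdp1-/-;hTDP1 DT40 cells (400/well) plus compounds, incubated ≥48 hr at 37 °C. Readout CellTiter-Glo luminescence.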
% is set by controls: 0 for no effect and ±100 for the full control effect; potency is the fitted concentration of half-maximal effect; tags give direction and shape of the fitted curve.

| Compound | Potency | activity change, negative = growth inhibition |
| --- | --- | --- |
| Cc1cc(/C=C/c2cccc3sc(C)[n+](CCCCI)c23)ccc1N(CCCl)CCCl | active: 1.58 µM |  |
| CCc1ccc(-n2nc(C)c3c2NC(=O)CSC3c2ccc(OC)cc2OC)cc1 (stereo unspecified) | active: 23.1 µM |  |
| COC(=O)C1=C(c2ccc(OCc3ccccc3)cc2)C[C@@H]2CC[C@H]1N2C | active: 23.1 µM |  |
| Cc1ccc(-c2nc(NC(=O)c3ccc(S(=O)(=O)N(CCC#N)CCC#N)cc3)sc2-c2ccccc2)cc1 | inconclusive [inhibitor, single point] |  |
| OC12Oc3ccccc3C=C1N1CCC2CC1 (stereo unspecified) | inactive |  |
| CCCCn1c(O)c(C(C)=NCc2cc(OC)cc(OC)c2)c(=O)[nH]c1=O | inconclusive [inhibitor, single point] |  |
| Cn1c(O)c(C=NCCN2CCOCC2)c(=O)n(C)c1=S | inconclusive [inhibitor, full curve, poor fit] |  |
| CCN1CCN(C(=O)COc2ccc3c(c2)C(=O)CC2(CCN(C(C)=O)CC2)O3)CC1 |  | inconclusive: -31.6% [inhibitor] |
| C[C@]1(O)CCC2C3CC[C@H]4C[C@@H](OC(=O)CNC(=O)CN)CC[C@]4(C)C3CC[C@@]21C (stereo partly specified) | inconclusive [inhibitor, single point] |  |
| Cc1cccc(NC(=O)CSc2nnc([C@@H](N)Cc3c[nH]c4ccccc34)o2)c1C | inconclusive [inhibitor, single point] |  |
| OC(CNCc1ccccc1)c1ccc(Cl)cc1 (stereo unspecified) | inconclusive [inhibitor, partial curve] |  |
| O=C(Cc1ccc(Cl)c(Cl)c1)Nc1cccnc1 | inconclusive [inhibitor, partial curve] |  |
| O=C1C=C(NS(=O)(=O)c2ccccc2)C(=O)c2ccccc21 | inconclusive [inhibitor, single point] |  |
| Cc1ccc(C(=O)NC2CC3CCC(C2)N3)cc1 (stereo unspecified) | inactive |  |
| COc1cccc(OC)c1C(=O)NC(=S)N1C[C@H]2C[C@H](C1)c1cccc(=O)n1C2 | inactive |  |
| S=C=Nc1cccc(C2(N3CCCCC3)CCCCC2)c1 | active: 16.4 µM |  |
| CC12CC(=O)C3C(CCC4CC=CCC43C)C1CCC2=O (stereo unspecified) | inconclusive [inhibitor, single point] |  |
| Cc1ccc(S(=O)(=O)N2CCC(C(=O)N3CCC4(CC3)OCCO4)CC2)cc1 | inactive |  |
| COc1ccc(C(=O)C2CCCN(Cc3ccon3)C2)cc1OC (stereo unspecified) |  | inconclusive: -37.5% [inhibitor] |
| COCCNC(=O)c1ccc(N2CC3CC(C2)c2cccc(=O)n2C3)c([N+](=O)[O-])c1 (stereo unspecified) | inactive |  |
| Oc1c(Br)c(Br)c(Br)c(Br)c1Br | inconclusive [inhibitor, single point] |  |
| c1ccc2c(c1)CSc1ccccc1C2C1=NCCN1 (stereo unspecified) | inconclusive [inhibitor, single point] |  |
| CCC(=NCc1ccco1)c1c(O)n(-c2ccc(C)cc2)c(=O)[nH]c1=O | inconclusive [inhibitor, full curve, poor fit] |  |
| CCc1nc2ccc(C(=O)NCCN3CCNC3=O)cn2c1N(CC)Cc1cccc(Br)c1 | inconclusive [inhibitor, single point] |  |

| Compound | Potency | activity change, negative = growth inhibition |
| --- | --- | --- |
| COC(=O)C1=C(c2ccc(F)cc2OCc2ccccc2)C[C@@H]2CC[C@H]1N2C(=O)N1CCC(C)CC1 | inconclusive [inhibitor, single point] |  |
| BrCC(Br)(Br)Br | inconclusive [inhibitor, single point] |  |
| CC(C)NC(=O)NC1C2CC3CC(C2)CC1C3 (stereo unspecified) | inconclusive [inhibitor, partial curve] |  |
| COc1ccccc1N1CCN(C(=O)c2cc3c(-c4ccccc4F)nn(C)c3s2)CC1 | active: 6.51 µM |  |
| CCCCn1c(=O)c(C(=O)Nc2ccccc2N)c(O)c2ccccc21 | active: 23.1 µM |  |
| CCNc1nc(Cl)nc(NC(C)C)n1 | inactive |  |
| COC(=O)[C@@H](N)CCCN/C(N)=N/[N+](=O)[O-] | inactive |  |
| FC(F)(F)Oc1ccc(C2NCc3ccccc3-n3cccc32)cc1 (stereo unspecified) | inconclusive [inhibitor, single point] |  |
| COc1cc(CC(C)N)c(OC)cc1Br (stereo unspecified) | active: 28.3 µM |  |
| COC(=O)C1=C(c2ccc(S(C)(=O)=O)cc2)C[C@@H]2CC[C@H]1N2C(=O)NCc1ccc(C(F)(F)F)cc1 | inconclusive [inhibitor, partial curve] |  |
| Clc1ccc(OCCCN2CCCC2)cc1Cl | inconclusive [inhibitor, single point] |  |
| O=C(CCN1CCOCC1)Nc1ccc(Br)cc1C(=O)c1ccccc1 | inconclusive [inhibitor, single point] |  |
| N#CC1(N2CCCCC2)CCCCC1 | inactive |  |
| CCOC(=O)c1ccc2[nH]c(-c3ccc(S(=O)(=O)F)cc3)cc(=O)c2c1 | inconclusive [inhibitor, single point] |  |
| COc1ccc(-n2nnnc2C(c2cccs2)N2CCC(n3c(=O)[nH]c4ccccc43)CC2)cc1 (stereo unspecified) | active: 13 µM |  |
| O=c1[nH]c(=O)n(C2CCCCCC2)c(O)c1C=NCC1CCCO1 (stereo unspecified) | inactive |  |
| O=c1[nH]c(=O)n(C2CCCCCC2)c(O)c1C=NC1CCN(Cc2ccccc2)CC1 | inconclusive [inhibitor, single point] |  |
| CCN1CCN(C(=O)COc2ccc(S(=O)(=O)Nc3ccc(Cl)cc3)cc2)CC1 | inconclusive [inhibitor, single point] |  |
| CN(CC(=O)Nc1cccc(F)c1)CC(=O)Nc1cccc(S(=O)(=O)N(C)c2ccccc2)c1 | active: 23.1 µM |  |
| NCCc1c(Cc2ccccc2)[nH]c2ccccc12 | inconclusive [inhibitor, partial curve, poor fit] |  |
| CC(=O)C1CCC2C3CCC4CC(O)CCC4(C)C3CCC12C (stereo unspecified) | inconclusive [inhibitor, single point] |  |
| CN(C(=O)Oc1ccc(C(C)(C)C)cc1)c1ccccc1 | inconclusive [inhibitor, single point] |  |
| O=C(NCCc1ccccc1)[C@@H]1CC=C[C@@H]2CCN(Cc3ccc(Cl)c(Cl)c3)C(=O)[C@@H]21 | active: 2.82 µM and active: 10.3 µM |  |
| CSc1ccc(CN2CCN(c3ccccc3C)CC2)cc1 | inconclusive [inhibitor, partial curve] |  |

| Compound | Potency | activity change, negative = growth inhibition |
| --- | --- | --- |
| CC[C@@H]1c2ccccc2[C@@H]2CC[C@H]1N2c1ccccc1 | inconclusive [inhibitor, single point] |  |
| N[C@@H](Cc1c[nH]c2ccccc12)c1nnc(SCc2c(F)cccc2Cl)o1 | inconclusive [inhibitor, partial curve] |  |
| COC(=O)C1=C(c2ccccc2OCc2ccccc2)C[C@@H]2CC[C@H]1N2C(=O)NCCOc1ccc(OC)cc1 | inconclusive [inhibitor, single point] |  |
| O=C(Cn1c(=O)c(C(F)(F)F)nc2ccccc21)N1CCC2(CC1)OCCO2 | inactive |  |
| COc1ccc(-n2c(-c3ccccc3F)nc3ccccc3c2=O)cc1 | active: 20.6 µM |  |
| COc1ccc(N=Cc2c(O)n(C)c(=O)[nH]c2=O)cc1 | inactive |  |
| COC(=O)C1=C(c2ccc(OCc3ccccc3)cc2)C[C@@H]2CC[C@H]1N2C(=O)NCc1ccc(N(C)C)cc1 | inconclusive [inhibitor, single point] |  |
| CC(Cc1ccccc1)NC(=O)C(c1ccc(N)cc1)c1ccc(N)cc1 (stereo unspecified) | inconclusive [inhibitor, partial curve] |  |
| CNC1[C@@H](O)C(OC2C(N)C[C@H](N)[C@@H](O[C@@H]3OC(C(C)O)C(O)C(O)C3N)C2O)OC[C@]1(C)O (stereo partly specified) | inactive |  |
| Cc1ccc(Cl)cc1N1CCN(C(=O)c2cn(CC(C)C)c(=O)c3c2c2ccccc2n3C)CC1 | active: 4.61 µM |  |
| Cc1ccc2c(c1)CC1(CN2C)C(=O)NC(=O)N(CCc2ccccc2)C1=O (stereo unspecified) | inconclusive [inhibitor, partial curve, poor fit] |  |
| C[C@@H]([C@@H](O)c1ccccc1)N(C)C(=O)Cc1ccccc1 | inactive |  |
| Cc1cccc(C)c1-n1nnnc1C(C1CC1)N1CCC2(CC1)C(=O)NCN2c1ccccc1 (stereo unspecified) | active: 14.6 µM |  |
| COC(=O)C1=C(c2ccccc2)C[C@@H]2CC[C@H]1N2C(=O)NC1CCCCC1 | inconclusive [inhibitor, single point] |  |
| CCOP(=O)(OCC)c1cccc(P(=O)(c2ccccc2)c2ccccc2)c1O | inconclusive [inhibitor, single point] |  |
| COc1ccccc1CCNC1CCCC(C)C1 (stereo unspecified) | inconclusive [inhibitor, single point] |  |
| c1ccc(CCNCc2ccccc2)cc1 | inactive |  |
| Cc1cccc([N+](=O)[O-])c1 | inactive |  |
| COc1ccc(CCNCc2cccc(C(F)(F)F)c2)cc1OC | inconclusive [inhibitor, partial curve] |  |
| CC(C)n1c(=O)c(C=Nc2ccc(Br)cc2)c(O)n(Cc2ccco2)c1=O | inconclusive [inhibitor, single point] |  |
| Cc1ccccc1-n1c(C)nc2sccc2c1=O | inactive |  |
| CCc1nnc(NS(=O)(=O)c2ccc(N=Cc3c(O)n(-c4ccc(Cl)cc4)c(=O)[nH]c3=O)cc2)s1 | inconclusive [inhibitor, single point] |  |
| C[n+]1c(-c2ccccc2)c2cc(N)ccc2c2ccc(N)cc21 | active: 0.164 µM |  |
